Laboratory results as given in PubChem BioAssay AID1508623 (National Center for Advancing Translational Sciences (NCATS), 2021).
Screen size: about 48,000 compounds; about 450 (0.94%) were called active. Roughly 19% stayed inconclusive and do not appear here. Calls follow the shape of the dose curve; as a rule, active = well fitted inhibition curve with a large enough effect; inconclusive = small, poorly fitted or top-dose-only effect; inactive = no such curve, though single readings can be large or run the other way. The list shows a part of the results.

Experiment: Primary qHTS for Identification of Small Molecule Inhibitors of Huntingtin Promoter Activity; also: nearly all actives have a fitted effect of over 50% in size
Settings: HEK293 HTT promoter firefly luciferase reporter (activity 0% = vehicle and -100% = no light), 24 h; series mostly up to 57.5 µM; activity change, negative = inhibition: at the top concentration
Method in brief: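 Firefly luciferase readout (Dual-Glo, 10 min RT) after 24 h, 37 °C compound exposure (final up to 57.5 uM) of HEK293 reporter cells cultured 24 h beforehand; PTC124 at 50 uM final as control inhibitor; activity scaled vehicle 0%, zero RLU -100%.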

Activity change, negative = inhibition, inactive:
Cc1ccccc1NC(=O)CSc1nccn1C -21.6%, Cc1cccc(N(C)C(=O)Cn2cnc3nc4c(cc3c2=O)CCCC4)c1 -26.7%, Cc1cc(Cl)ccc1NC(=O)C1CCCN(c2nnc(C)c3c(C)n(-c4ccccc4)nc23)C1 (centres undefined) -7.08%, COc1cccc(N2CC(NC(=O)c3cccs3)CC2=O)c1 (centres undefined) -21.7%, O=C(O)C(=O)Nc1cccc(-c2nn[nH]n2)c1 -4.11%, Cc1cc(C)c(NC(=O)C(C)n2nc(C)c3sc4ccccc4c3c2=O)c(C)c1 (centres undefined) -15%, CC(CCc1ccccc1)NC(=O)CSc1n[nH]c(-c2ccccc2Cl)n1 (centres undefined) -12.8%, COc1ccc(OC(=O)c2cn(-c3cccc(OC)c3)c(=O)c3ccccc23)cc1 -19.8%, Cc1ccc(OC(C)C(=O)N2CCN(CCc3ccccn3)CC2)cc1C (centres undefined) -11.5%, O=S(=O)(NCC(c1ccco1)S(=O)(=O)c1cccs1)c1ccccc1 (centres undefined) -9.92%, Cc1cccc(OCC(=O)Nc2ccc3nc(SCc4ccccc4)sc3c2)c1 -4.93%, Cc1nc2ccccc2n1CCc1nc2c3ccccc3nc(SCc3ccccc3F)n2n1 0%, CCc1ccc(CNC(=O)c2ccc(Cn3c(=O)c4cccn4c4cccnc43)cc2)cc1 0.277%, CCCc1nnc(NC(=O)CSc2nnc3c4ccccc4n(CC)c3n2)s1 -2.93%, CCc1cccc(C)c1NC(=O)c1cc(CN2CCCC2)on1 5.9%, CC(C)NC(=O)C1CCCN(S(=O)(=O)c2ccc3c(ccn3C)c2)C1 (centres undefined) 0.758%, COCCn1c(C)cc(O)c(C(c2cccc(F)c2)N2CCN(c3ccccc3)CC2)c1=O (centres undefined) -13.2%, CCOc1ccc(C(=O)N2CC(=O)Nc3ccc(F)cc3C2c2ccc(F)cc2)cc1 (centres undefined) -17.4%, COc1cc(C(=O)N2CCCCCCC2)cc(OC)c1OC 6.58%, COc1ccc(-c2oc3ncn4nc(COc5ccc(Cl)cc5)nc4c3c2-c2ccc(OC)cc2)cc1 -4.09%, CCc1nnc2c(Nc3cc(OC)c(Cl)cc3OC)nc3ccccc3n12 -7.37%, O=C(Nc1ccc2oc(-c3cccc4c(Br)cccc34)nc2c1)c1cccc(Cl)c1 -8.96%, CC(C)(C)C1CCc2c(sc(NC(=O)c3cc(-c4ccc(F)cc4)on3)c2C#N)C1 (centres undefined) 15.4%, Cc1cc(C)cc(-n2ccn3cnnc3c2=O)c1 -6.33%, CCC(C(=O)NCCc1ccc(OC)c(OC)c1)n1nc(C)c2sc3ccccc3c2c1=O (centres undefined) -29.9%, CCCN(c1ccccc1F)S(=O)(=O)c1cc(-c2cc(C)no2)ccc1C -28.8%, Cn1cc(C=CC(=O)c2cccc(F)c2)cc1C=CC(=O)NO 33.1%, CSc1cccc(Nc2cc(C(=O)NC3CCCCC3)c3ccccc3n2)c1 -30%, COc1cc2c(cc1OC)[C@@H]1Cc3ccc(OC)c(OC)c3CN1CC2 -5.03%, CCc1ccc2occ(CC(=O)Nc3c(C(=O)c4ccc(F)cc4)oc4ccccc34)c2c1 -18%, CCCCCCSc1nc(N)c2c3c(sc2n1)CCCC3C (centres undefined) 38.8%, Cn1nc(-c2ccccc2)c(-c2ccccc2)c(C(=O)Nc2ccccc2C(N)=O)c1=O -18.4%, CN(C)c1ccc(-c2nc3ccc(Cl)cn3c2Nc2ccc3c(c2)OCCO3)cc1 34.1%, CCCN(CCC)c1cc(C)nc2nc(-c3ccc(C(C)(C)C)cc3)nn12 -14.8%, Cc1cc(C)cc(N2C(=O)CSC23C(=O)N(CC(N)=O)c2ccccc23)c1 (centres undefined) 8.64%, Cc1ccc(C)c(N2CCN(C3(c4ccccc4)C(=O)c4ccccc4C3=O)CC2)c1 -25.9%, CCOCCCNC(=O)Cn1ncc2c([nH]c3ccc(C)cc32)c1=O 3.1%, COCCN(Cc1ccc(C)c(Br)c1)S(=O)(=O)c1ccc2[nH]c(=O)ccc2c1 -28.3%, CCOC(=O)c1ccc(NC(=O)c2cc(=O)c3ccc(C)c(C)c3o2)cc1 -11.4%, COCCn1c(C)cc(O)c(C(c2ccccc2)N2CCCCC2)c1=O (centres undefined) -11.4%, Cc1ccc(-n2ncc3c(Nc4ccc(Oc5ccccc5)cc4)ncnc32)cc1 -6.35%, Cc1c(C(=O)Nc2cccc(C(F)(F)F)c2)sc2nc3n(c(=O)c12)CCC3 -16.9%, Cc1cccc(Cn2cc3c(=O)n(CC(=O)Nc4cccc(C)c4C)nc-3c3cc(F)ccc32)c1 -7.59%, CC(C)Cc1nn2c(=O)cc(COC(=O)c3cccc(NC(=O)c4ccccc4)c3)nc2s1 -9.66%, COc1ccc(NC(=O)c2cc(C3CC3)nc3c2c(C)nn3-c2ccccc2)c(OC)c1 -11.9%, CCCN(CCC)CCNC(=O)c1cc2c(=O)oc3ccc(C)cc3c2s1 -23.4%, Cc1cccc(N2CCN(C(=O)c3cc4ccc5cccnc5c4[nH]3)CC2)c1C -19.6%, CCOCCCNC(=O)Cn1ncc2c([nH]c3ccccc32)c1=O 2.66%, Clc1ccccc1CNCCCSc1nnnn1-c1ccccc1 -11.2%, CCOc1ccc(/C=C/c2nc(C#N)c(NCc3ccc(OC)cc3)o2)cc1 -15.1%, COC(=O)c1ccc(NC(=O)C(=O)NCCc2csc3nc(-c4ccccc4F)nn23)cc1 17.6%, CCN(CC)S(=O)(=O)c1ccc2c(c1)N(CC(=O)Nc1cccc(C)c1C)C(=O)C1CCCN21 (centres undefined) -4.91%, O=C(CCCN1CCC(O)(c2ccc(Cl)cc2)CC1)c1ccc(F)cc1, COc1cccc(-c2noc(-c3cc4ccccc4oc3=O)n2)c1OC 30.2%, COc1cc(OC)c(NC(=O)C(CC(C)C)N2Cc3ccccc3C2=O)cc1Cl (centres undefined) -30.4%, CCOc1ccccc1NC(=O)CSc1cn(CC(=O)N2CCCCCC2)c2ccccc12 -4.08%, COc1ccc(C)cc1NC(=O)CSc1ncc2c(n1)-c1ccc(Cl)cc1N(Cc1ccccc1)S2(=O)=O -24.3%, Cc1ccc(NC(=O)CCN2C(=O)c3ccccc3Sc3ncccc32)cc1 -11.7%, CC1=C(C(=O)Nc2ccccc2)C(c2ccc(F)cc2)n2nc(SCc3cc(C)ccc3C)nc2N1 (centres undefined) -10.5%, COC(=O)c1ccc2c(c1)N(CC(=O)Nc1ccc(C)c(C)c1)C(=O)c1ccccc1S2 -18.8%, Cc1cc2oc(C(=O)Nc3sc4c(c3C(=O)NCC3CCCO3)CCCC4)cc(=O)c2cc1C (centres undefined) -18.6%, Cn1c(=O)c2c(-c3ccc(Cl)cc3)ccnc2n(C)c1=O 5.61%, COc1ccc(OC)c(CCNc2nc3cc(OC)c(OC)cc3c3nc(-c4cccnc4)nn23)c1 -0.624%, CCOc1ccccc1CNC(=O)CN1C(=O)c2cccnc2Oc2ccc(Cl)cc21 0.652%, COc1ccc(S(=O)(=O)N2CCCCC2)cc1C(=O)NC1CCS(=O)(=O)C1 (centres undefined) -15.4%, CCS(=O)(=O)N1CCC2(CC1)OC(=O)C(C)=C2C(=O)NCc1ccc(OC)c(OC)c1 -12.6%, COc1ccc(N2CCN(C(=O)c3cn(C)c4ccc(S(=O)(=O)N5CCOCC5)cc4c3=O)CC2)cc1 -18.7% [at 11.5 µM], CCC1Oc2ccccc2N(CC(=O)NCc2ccccc2)C1=O (centres undefined) 6.48%, Cn1c(=O)c(=O)n(C)c2cc(N3CCCC3)c(NC(=O)c3ccccc3Cl)cc21 0.31%, CCn1c(=O)c2sccc2n2c(CCCC(=O)Nc3ccc(Oc4ccccc4)cc3)nnc12 -16.8%, CCOc1ccccc1CNC(=O)CN1C(=O)c2cccnc2Oc2ccc(C)cc21 -19%, NCC(=O)CCC(=O)O 13.1%, N[C@H](CSC(c1ccccc1)(c1ccccc1)c1ccccc1)C(=O)O -11.2%, COc1ccc(OC)c(NC(=O)N2CCC3(CC2)Oc2ccccc2C(=O)N3Cc2ccccc2F)c1 -28%, COc1ccc(-c2noc(CC(=O)N(C)c3cc(Cl)c(OC)cc3OC)n2)cc1 -26.5%, CCCCN(C)C(=O)c1ccc2c(c1)NC(=O)C(CC(C)C)N2 (centres undefined) -21%, CCN1C(=O)C2(c3ccccc31)c1c(oc3ccccc3c1=O)C(=O)N2CCOC (centres undefined) -18.9%, Cc1ccc(OCCSc2nc3ccccc3n2CCC(=O)O)cc1 1.68%, CN(Cc1ccccc1)c1nc2c(S(=O)(=O)c3ccccc3)nnn2c2ccsc12 -6.89%, Cc1c(C(=O)Nc2ccccc2F)sc2nc3n(c(=O)c12)CCC3 79.5%, Cc1ccc(NC(=O)Cn2c(=O)n(CC(=O)NCCc3ccccc3)c(=O)c3ccccc32)cc1 -2.84%, CC1CCc2nc3ncn(Cc4cccc(F)c4)c(=O)c3cc2C1 (centres undefined) 23.5%, COc1ccc(CNC(=O)CCc2c(C)nc3c4cccnc4nn3c2C)cc1 -13.5%, COc1ccc(CC(=O)Nc2nnc3n2CCS3)cc1OC -18.9%, COc1ccc(C)cc1-n1c(SCC(=O)NCc2ccco2)nc2c([nH]c3ccccc32)c1=O -16.6%, CCCCN(CC)CCCNC(=O)c1nn(-c2ccc(OC)cc2)c(=O)c2c1c1ccccc1n2C -4.72%, CNC(=O)C1CCC(Cn2c(=O)c3sccc3n(CC(=O)Nc3ccccc3)c2=O)CC1 (centres undefined) -71.7%, Cc1ccc(CCNC(=O)CCCn2c(=O)c3cccn3c3ccc(F)cc32)cc1 -12.3%, CCCCN(CC)CCCNC(=O)c1sc2nc3n(c(=O)c2c1C)CCCCC3 8.64%, COCCNC(=O)c1cc(-c2cccc(Cl)c2)on1 56.8%, COc1cc2[nH]c(=O)n(CCCC(=O)N(C)Cc3ccccc3)c(=O)c2cc1OC -14.5%, CCOC(=O)c1ccc(N2C(=O)c3n[nH]c(C)c3C2c2ccc(CC)cc2)cc1 (centres undefined) -24.7%, COC(=O)c1cc2occc2n1Cc1nc(-c2ccc(Cl)cc2)oc1C -7.72%, CCc1ccc(S(=O)(=O)c2cn(C)c3ccc(C)cc3c2=O)cc1 -22.3%, CCOCCCNC(=O)CN1C(=O)CCn2nc(-c3cccn3C)cc21 -19.9%, COc1ccc(CN(CCN(C)C)c2ncccn2)cc1 2.72%, Cc1cccn2c(=O)cc(COc3cccc(NC(=O)Nc4cccc(Cl)c4)c3)nc12 8.5%, CC(C)c1ccc(NC(=O)[C@H]2O[C@@H]3OC(C)(C)O[C@@H]3[C@H]3OC(C)(C)O[C@H]32)cc1 9.93%, Cc1nn(CC(=O)N2CCN(c3ccccc3F)CC2)c(=O)c2cccn12 -7.47%
